# Measured values as given in PubChem BioAssay AID1347073 (National Center for Advancing Translational Sciences (NCATS), 2019).
# Out of some 45,000 compounds screened, about 200 (0.44%) were called active. Inconclusive results (about 7%) are left out. Calls follow the shape of the dose curve; as a rule, active = well fitted activation curve with a large enough effect; inconclusive = small, poorly fitted or top-dose-only effect; inactive = no such curve, though single readings can be large or run the other way. The list shows a part of the results.
# Assay: qHTS of TDP-43 Inhibitors: NCGC Sytravon Library Screen; also: 0% is about no effect; nearly all actives have a fitted effect of over 55% in size
# Conditions: yeast TDP-43 toxicity rescue, BacTiter-Glo growth, 24 h; series mostly up to 46.1 µM; growth rescue (activation): at the top concentration
# In short: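 TDP-43-expressing yeast, pregrown in raffinose, seeded at OD600 0.02 in galactose medium with compound for 24 hr at 30 deg C. Growth read by BacTiter-Glo luminescence, so rescue of toxicity appears as activation.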
row,Structure (SMILES),growth rescue (activation)
1,Cc1nc2ccc(NC(=S)N3CCOCC3)cc2nc1C,inactive: -16.3%
2,COc1ccc(C(=O)NNC(=O)CSc2nnc(C)n2C)cc1,inactive: -5.35%
3,COc1ccc(N(CC(=O)NN=C2CCN(C)CC2)S(=O)(=O)c2ccc(NC(C)=O)cc2)cc1,inactive: 25.1%
4,O=C(c1ccco1)N1CCN(S(=O)(=O)/C=C/c2ccccc2)CC1,inactive: 13.2%
5,CC(=O)Nc1ccc(NC(=O)C2CCCN2C(=O)NC2CCCCC2)cc1 (stereo unspecified),inactive: 13.3%
6,CCCn1c(SCC(=O)NC)nc2sc3c(c2c1=O)CCC3,inactive: 5.33%
7,O=c1[nH]c(C2CCN(S(=O)(=O)c3ccc4c(c3)OCCO4)CC2)nc2c1nnn2Cc1cccc(F)c1,inactive: -6%
8,COc1ccc(NC(=O)c2cc(C)no2)cc1Cl,inactive: -7.48%
9,CCc1ccccc1NC(=O)c1ccc(-c2csc(C)n2)cc1,inactive: 13.4%
10,Cc1cccc(-n2c(=O)c3c4c(sc3n3c(=S)[nH]nc23)CCC4)c1,inactive: 7.41%
11,Cc1ccc(-n2c(SCC(N)=O)nc(O)cc2=O)cc1,inactive: 8.69%
12,N#Cc1ccc(N2C(=O)[C@@H]3C(C(=O)C(c4ccccc4)c4ccccc4)=NN[C@@H]3C2=O)cc1,inactive: -34.6%
13,COc1ccc(C(C)C)cc1S(=O)(=O)Nc1ncn[nH]1,inactive: -1.53%
14,CCC(C)(C)c1ccc(OC(=O)c2cccnc2Cl)cc1,inactive: 13.5%
15,O=C(N/N=C/c1ccsc1)c1ccccn1,inactive: -3.65%
16,Cc1cc(C)cc(OCC(=O)NNC(=O)c2cc3ccccc3o2)c1,inactive: 17.7%
17,CC1CCCCC1NC(=O)/C=C/c1nc2ccccc2s1 (stereo unspecified),inactive: 11.2%
18,CN1C(=O)S/C(=C\c2ccccc2OCc2ccc(C(=O)O)cc2)C1=O,inactive: -15.2%
19,O=C(c1ccco1)N(CCC(c1ccccc1)c1ccco1)Cc1ccccc1 (stereo unspecified),inactive: -3.29%

row,Structure (SMILES),growth rescue (activation)
1,O=C(CNC(=O)OCc1ccccc1)NC1CCCCCC1,inactive: 8.07%
2,O=C(O)CC1SC(=Nc2ccc(O)cc2)NC1=O (stereo unspecified),inactive: -7.2%
3,Cc1ccc(NC(=O)N2CCc3ccccc32)cc1C,inactive: 29.3%
4,O=C(O)C1C2CCC(O2)C1C(=O)Nc1ccc(Cl)cc1F (stereo unspecified),inactive: -9.48%
5,CCN(Cc1ccccc1)C(=O)C1CCN(Cc2sccc2C)CC1,inactive: 0.997%
6,COC(=O)c1cc(S(=O)(=O)n2nc(C)cc2C)c(Cl)cc1Cl,inactive: -4.12%
7,COc1ccc(C)cc1NCC(=O)Nc1ccc(C(C)(C)C)cc1,inactive: -15.6%
8,Cc1ccc(NC(=O)c2cc(-c3ccc4c(c3)OCO4)on2)cc1C,inactive: -7.77%
9,COc1ccc(-n2ccc(=O)c(C(=O)O)n2)c(OC)c1,inactive: 1.51%
10,CC1CC(=O)N(c2ccc(NCc3ccc(Cl)cc3)c([N+](=O)[O-])c2)C1=O (stereo unspecified),inactive: 11%
11,CC(C)C(=O)N1CCC1(C)C(=O)Nc1ccc(-n2cccc2)cc1 (stereo unspecified),inactive: 24.5%
12,O=C(NC1CCCCC1)C(=S)N1CCCC1,inactive: 13.8%
13,O=C(COc1cccc2cccnc12)NCc1cccs1,inactive: -0.652%
14,CCCCNC(=O)NCCN1CCOCC1,inactive: 2.06%
15,Cc1ccc(NC(=O)c2ccc3c(=O)n4c(nc3c2)CCCCC4)cc1F,inactive: -5.18%
16,CCc1nn(CCCC(=O)NCc2ccc(OC)c(OC)c2)c(=O)c2cc3occc3n12,inactive: 10.2%
17,Cc1onc(-c2ccccc2Cl)c1C(=O)NNC(=O)c1ccccc1F,inactive: 15.4%
18,COc1ccc(CCn2c(O)c(C=Nc3cccc(F)c3)c(=O)[nH]c2=O)cc1OC,inactive: 9.39%
19,COc1ccc(C(=O)OCCN2CCCCC2)cc1,inactive: -2.45%

row,Structure (SMILES),growth rescue (activation)
1,CC(=O)c1cccc(NC(=O)CN(C)Cc2ccc(OC(F)F)cc2)c1,inactive: 20.5%
2,CCOC(=O)CN(C(=O)COC(=O)C1=NNC(=O)CC1)c1ccc(F)cc1,inactive: 2.15%
3,CC(=O)Nc1ccc(NC(=O)CCCNC(=O)c2ccc(Cl)cc2)cc1,inactive: -0.355%
4,NC(=O)c1ccsc1NC(=O)CSc1n[nH]c(N)n1,inactive: -0.844%
5,CCN(CC)c1ccc(C=C2C(=O)OC3(CCCCC3)OC2=O)cc1,inactive: 4.79%
6,COc1ccc(S(=O)(=O)NCCN2CCOCC2)c(C)c1C,inactive: -8.63%
7,NCc1oc(-c2ccccc2)cc1C(=O)O,inactive: 2.53%
8,CCC(C)c1ccccc1NC(=O)COC(=O)c1ccc2[nH]c3c(c2c1)CCCC3 (stereo unspecified),inactive: 15.4%
9,CC1CCCCN1CCNC(=O)C1CC(=O)N(c2ccc(F)c(Cl)c2)C1 (stereo unspecified),inactive: 7.47%
10,COCCN1CCN(C(=O)c2ccc3oc(CCc4ccccc4)nc3c2)CC1,inactive: 11.1%
11,CCCOc1nc2ccccc2cc1/C=C/C(=O)O,inactive: 18.6%
12,COc1ccnc(Oc2ccccc2)c1C(=O)N/C=N/OCc1ccccc1,inactive: 23.9%
13,CCc1c(C(=O)N/N=C/c2ccco2)nnn1-c1nonc1N,inactive: 11%
14,CCOC(=O)c1sc(NC(=O)Nc2ccc(Cl)cc2)cc1C,inactive: 29.3%
15,Cn1ncc(Cl)c(Oc2ccc(C(C)(C)C)cc2)c1=O,inactive: 29.7%
16,Cn1cc(CCNCc2cn[nH]c2-c2ccc(-c3ccccc3)cc2)cn1,inactive: 25.8%
17,O=C(CN(c1ccccn1)S(=O)(=O)c1ccc(F)cc1)Nc1ccccc1,inactive: 9.41%
18,NNC(=S)NCc1cccnc1,inactive: 14.1%
